Experimental data from PubChem BioAssay AID1963433 (Molecular Pharmacology Branch, DTP, NCI, 2024).
Certain results were filed several times, with different values. This is not the full list of results. The source may hold further records. Results that share an entry are repeated measurements (runs, samples, wells, individuals or studies). Marks such as (2×) say how often a value occurs here. A date in brackets names the month of the test.

Tested on: 772245-204-R-J1-PDC complex spheroid growth
Test: Anticancer human tumor 772245-204-R-J1-PDC patient-derived rhabdomyosarcoma cell line growth inhibition [Asc]
Conditions: for viability, T/C: stronger effect = lower value
Procedure: Multicellular complex tumor spheroid response to apoptosis pathway targeting inhibitors Alrizomadlin, Pelcitoclax, and Dasminapant in combination with a variety of drugs and investigational agents in selected tumor cell lines
The MDM2 inhibitor alrizomadlin, the Bcl-2/Bcl-xL inhibitor pelcitoclax, and the IAPs inhibitor dasminapant were evaluated both individually and in combination with standard of care and investigational anticancer small molecules within a complex spheroid model of solid tumors. . Complex spheroids include a stromal component modeled by human endothelial cells (HUVEC) and fibroblasts modeled by human mesenchymal stem cells (MSCs). The concentration ranges selected for each drug and investigational agent were based upon clinically achievable concentrations if the clinical Cmax of the agent was known.
Compounds. The drugs and investigational agents: alrizomadlin (APG-115; NSC831270), pelcitoclax (APG-1252; NSC835773), dasminapant (APG-1387;NSC834197), TAK-243 (NSC785004), copanlisib (NSC809693), olaparib (NSC753686), talazoparib (NSC767125), cobimetinib (NSC 768068), eltanexor (KPT-8602, NSC 794443), abemaciclib (NSC 768073), sotorasib (NSC818433), adagrasib (NSC 831453), MRTX-1133 (NSC 836407), Iadademestat (ORY1001, NSC 806812), and RMC-4630 (NSC839698), were obtained from the NCI Developmental Therapeutics Program Chemical Repository. The FDA-approved anticancer drug set is available from the Developmental Therapeutics Program at https://dtp.cancer.gov/organization/dscb/obtaining/available plates.htm. […] The stock solutions were prepared in dimethyl sulfoxide (DMSO, Sigma-Aldrich, St. Louis, MO, cat. D2650) at 800-fold the tested concentration and stored at -70 degrees C prior to their use. All drugs and investigational agents were tested over a range starting from a high concentration at or near the clinical Cmax and decreasing in half-log increments. If the clinical Cmax for an agent had not been determined, the highest concentration tested was 10 microM.
The patient-derived cancer (PDC) cell lines include five colon adenocarcinomas: 186277-243-T-J2-PDC, 616215-338-R-J1-PDC, 439559-082-T-J2-PDC, 463943-066-T-J2-PDC, and 519858-162-T-J1-PDC; three pancreatic carcinomas: 323965-272-R-J2-PDC, 521955-158-R6-J3-PDC, and 521955-158-R2-J5-PDC; two uterine sarcomas: 327498-152-R-J2-PDC and 993429-296-R-J1-PDC; two rhabdomyosarcomas: 755483-174-R-J1-PDC and 772245-204-R-J1-PDC; two soft tissue sarcomas: 126254-015-R-J1-PDC and 494315-158-R-J1-PDC; two malignant fibrous histiocytomas: 317291-083-R-J1-PDC and 596521-263-R-J1-PDC; two breast carcinomas: 171881-019-R-J1-PDC and 885512-296-R-J2-PDC; and one ovarian carcinoma: 6556581-035-R-J-PDC were obtained from the NCI PDMR, (https://pdmr.cancer.gov). The established cell lines HSSY-2 synovial sarcoma (RRID:CVCL 8719), SYO-1 synovial sarcoma (RRID:CVCL_7146), MPNST malignant peripheral neural sheath tumor were obtained from the Sloan Kettering Institute. The following established cell lines were purchased from the American Type Culture Collection (ATCC, Manassas, VA), Sor the received from the NCI repository:, PANC-1 pancreatic carcinoma (CRL-1469, RRID:CVCL_0480), OVCAR-5 ovarian carcinoma (RRID:CVCL_1628), OVCAR-8 ovarian carcinoma (RRID:CVCL_1629), , MCF-7 breast carcinoma (CRL-12584, RRID:CVCL_0031), MDA-MB-231 breast carcinoma (CRL-12532, RRID:CVCL_0062), NCI-H1876 small cell lung carcinoma (CRL-5902, RRID:CVCL_1503), NCI-H510A small cell lung carcinoma (HTB-184, RRID:CVCL_1565), NCI-H1417 (CRL-5869, RRID:CVCL_1469), and NCI-H196 small cell lung carcinoma (CRL-5823, RRID:CVCL_1509). Dr. Peter Houghton (Greehey Children's Cancer Research Institute, University of Texas Health Science Center, San Antonio, TX) provided Rh-18 rhabdomyosarcoma (RRID:CVCL_1659). Pooled donor human umbilical vein endothelial cells (HUVEC, Lonza, cat. CC-2519) and human mesenchymal stem cells (hMSC, Lonza, cat. PT-2501) were purchased from Lonza (Walkersville, MD).
Cell Culture. […]
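Also: compound exposure lasted seven days.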
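For viability, T/C in this document: 100% = DMSO vehicle control viability.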

Cc1c(S(C)(=O)=O)c(-c2cc(F)cc(N3CCN(c4ccc(NS(=O)(=O)c5ccc(NC(CCN6CCC(C(=O)OCCCP(=O)(O)O)CC6)CSc6ccccc6)c(S(=O)(=O)C(F)(F)F)c5)cc4)CC3)c2)c(-c2ccc(Cl)cc2)n1C(C)C (configuration not stated)
viability, T/C (compound alone 3.16 µM): 36.3, 42.4, 63.2, 40.7, 53.6, 31.4, 46.3, 41.1, 38, 43.2, 40.3, 45.9, 46.4, 33.8% | IC50 (compound alone, run of 10/11/2022): 2.02 µM, 1.54 µM, > 10 µM, 1.04 µM, 919 nM, 1.06 µM, 1.11 µM, 706 nM, 2.33 µM, 1.37 µM, 1.69 µM, 990 nM, 660 nM

CNC(C)C(=O)NC1CN(S(=O)(=O)c2cccc(S(=O)(=O)N3CCC4CCC(C(=O)NC(c5ccccc5)c5ccccc5)N4C(=O)C(NC(=O)C(C)NC)C3)c2)CCC2CCC(C(=O)NC(c3ccccc3)c3ccccc3)N2C1=O (configuration not stated)
viability, T/C (compound alone 0.0316 µM): 89.2, 76.7, 116, 85.9, 89, 107, 120, 99.9, 92.8, 93.8, 88.8, 104, 95.7% [2022-10] and 113% [2022-11] | viability, T/C (compound alone 0.1 µM): 75.1, 65.1, 105, 82.9, 95.4, 86.5, 94.6, 86.6, 106, 89.3, 89.9, 85.9, 89% [2022-10] and 101% [2022-11] | viability, T/C (compound alone 0.316 µM): 71, 88.8, 98.7, 95, 91.9, 84, 96.6, 95.9, 97.7, 86.6, 93.3, 91.4, 101% [2022-10] and 96% [2022-11] | viability, T/C (compound alone 1 µM): 75, 70.7, 89.9, 91.3, 87, 91.7, 106, 90.8, 92.6, 88, 88.5, 86, 89.5% [2022-10] and 101% [2022-11]

C=C(F)C(=O)N1CCN(c2nc(OCC3CCCN3C)nc3c2CCN(c2cccc4cccc(Cl)c24)C3)CC1CC#N (configuration not stated)
viability, T/C (compound alone 10 µM): 0.25%, 0.24%, 37.7%

CCN1C(C(=O)NC23CCC(C(=O)O)(CC2)CC3)C(c2cccc(Cl)c2F)C2(C(=O)Nc3cc(Cl)ccc32)C12CCCCC2 (configuration not stated)
viability, T/C (compound alone 0.03 µM): 109, 97.1, 102, 96.7, 94.2, 95.1, 108, 103, 113, 89.2, 97.2, 91.7, 96.5, 85.4, 99.3% | viability, T/C (compound alone 0.0949 µM): 106, 108, 95.5, 100 (2×), 99.4, 102 (2×), 107, 104, 90.2, 112, 101, 88.7, 85.1% | viability, T/C (compound alone 0.3 µM): 116, 111, 110, 88.2, 105, 89.1, 98.7, 95.7, 108, 88.3, 89.6, 89.5, 101, 85.5, 99.3% | viability, T/C (compound alone 0.949 µM): 99, 83.8, 98, 93.2, 79.1, 87.2, 96.9, 109, 104, 93.7, 94, 81.8, 114, 93.3, 98.8% | viability, T/C (compound alone 3 µM): 81.7, 92.2, 84.9, 75.5, 71.6, 62.9, 86, 78.2, 85.8, 74.5, 75.1, 80.1, 74.7, 65.4, 90.2%
